Measurements: the supplement of paper PMC4967469

Legend:
Experiment in all cases: Viability of human cancer cell lines after 72 h of drug (GDSC screen)
Thapsigargin = compound: C/C=C(/C)C(=O)O[C@H]1C(C)=C2[C@H]([C@@H]1OC(=O)CCCCCCC)[C@@](C)(OC(C)=O)C[C@H](OC(=O)CCC)[C@@]1(O)[C@H]2OC(=O)[C@@]1(C)O [Thapsigargin]; settings: top dose 0.512 µM; top dose inferred
Protocol: (§1)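 Human cancer cell lines in 384-well plates, medium with 10% serum, drug for 72 h over a 256-fold dose range (nine 2-fold or five 4-fold steps up to the top dose). Adherent lines were fixed and stained with the nucleic acid dye Syto60, suspension lines read with resazurin; signal relative to control wells, capped at 0 and 100%. One two-parameter sigmoid per drug and line, fitted in a mixed model over all curves with the slope shared within a line.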

MPS-1-IN-1 = compound: COc1cc(N2CCC(O)CC2)ccc1Nc1cc(Nc2ccccc2S(=O)(=O)C(C)C)c2cc[nH]c2n1 [MPS-1-IN-1]; settings: top dose 20 µM; top dose inferred
Protocol: as §1

CHIR-99021 = compound: Cc1cnc(-c2cnc(NCCNc3ccc(C#N)cn3)nc2-c2ccc(Cl)cc2Cl)[nH]1 [CHIR-99021]
Protocol: as §1

(5Z)-7-Oxozeaenol = compound: COc1cc(O)c2c(c1)/C=C/C[C@H](O)[C@H](O)C(=O)/C=C\C[C@H](C)OC2=O [(5Z)-7-Oxozeaenol]; settings: top dose 10 µM; top dose inferred
Protocol: as §1

ABT-869 = compound: Cc1ccc(F)c(NC(=O)Nc2ccc(-c3cccc4[nH]nc(N)c34)cc2)c1 [ABT-869]; settings: top dose 1.024 µM; top dose inferred
Protocol: as §1

Cytarabine = compound: Nc1ccn([C@@H]2O[C@H](CO)[C@@H](O)[C@@H]2O)c(=O)n1 [Cytarabine]; settings: top dose 2 µM
Protocol: as §1

ABT-888 = compound: C[C@]1(c2nc3c(C(N)=O)cccc3[nH]2)CCCN1 [ABT-888]; settings: top dose 5 µM; top dose inferred
Protocol: as §1

GSK269962A = compound: CCn1c(-c2nonc2N)nc2cnc(Oc3cccc(NC(=O)c4ccc(OCCN5CCOCC5)cc4)c3)cc21 [GSK269962A]; settings: top dose inferred
Protocol: as §1

KU-55933 = compound: O=c1cc(-c2cccc3c2Sc2ccccc2S3)oc(N2CCOCC2)c1 [KU-55933]; settings: top dose 10 µM
Protocol: as §1

CP466722 = compound: COc1cc2ncnc(-n3nc(-c4ccccn4)nc3N)c2cc1OC [CP466722]; settings: top dose 16 µM; top dose inferred
Protocol: as §1

QL-X-138 = compound: C=CC(=O)Nc1cc(-n2c(=O)ccc3cnc4ccc(-c5cn[nH]c5)cc4c32)ccc1C [QL-X-138]; settings: top dose 10.24 µM; top dose inferred
Protocol: as §1

Zibotentan = compound: COc1nc(C)cnc1NS(=O)(=O)c1cccnc1-c1ccc(-c2nnco2)cc1 [Zibotentan]; settings: top dose 20 µM; top dose inferred
Protocol: as §1

CMK = compound: Cc1ccc(-c2c(C(=O)CCl)n(CCCO)c3ncnc(N)c23)cc1 [CMK]; settings: top dose 4 µM; top dose inferred
Protocol: as §1

[1] = top dose 2.56 µM, screen: GDSC drug entry 154
[2] = top dose 10 µM, screen: GDSC drug entry 1241, top dose inferred
[3] = top dose 2.5 µM, screen: GDSC drug entry 127
[4] = top dose 5 µM, screen: GDSC drug entry 1192

Cell Line | AUC (Thapsigargin) | IC50 (Thapsigargin) | AUC (MPS-1-IN-1) | IC50 (MPS-1-IN-1) | AUC (CHIR-99021; [1]) | IC50 (CHIR-99021; [1]) | AUC (CHIR-99021; [2]) | IC50 (CHIR-99021; [2]) | AUC ((5Z)-7-Oxozeaenol) | IC50 ((5Z)-7-Oxozeaenol) | AUC (ABT-869) | IC50 (ABT-869) | AUC (Cytarabine) | IC50 (Cytarabine) | AUC (ABT-888) | IC50 (ABT-888) | AUC (GSK269962A; [3]) | IC50 (GSK269962A; [3]) | AUC (GSK269962A; [4]) | IC50 (GSK269962A; [4]) | AUC (KU-55933) | IC50 (KU-55933) | AUC (CP466722) | IC50 (CP466722) | AUC (QL-X-138) | IC50 (QL-X-138) | AUC (Zibotentan) | IC50 (Zibotentan) | AUC (CMK) | IC50 (CMK)
OS-RC-2 (kidney, adherent) | 0.442 | 20.7 nM | 0.949 | > 20000 nM | 0.944 | > 2560 nM | 0.952 | > 10000 nM | 0.77 | 5640 nM | 0.975 | > 1020 nM | 0.743 | 867 nM | 0.835 | > 5000 nM | 0.96 | > 2500 nM | 0.899 | > 5000 nM | 0.971 | > 10000 nM | 0.847 | > 16000 nM | 0.7 | 3060 nM | 0.976 | > 20000 nM | 0.866 | > 4000 nM
P30-OHK (lymphoblastic leukaemia, suspension) | 0.122 | 2.75 nM | 0.802 | 7980 nM | 0.99 | > 2560 nM | 0.922 | > 10000 nM | 0.55 | 837 nM | 0.99 | > 1020 nM | 0.36 | 55 nM | 0.991 | > 5000 nM | 0.916 | > 2500 nM | 0.561 | 444 nM | 0.915 | > 10000 nM | 0.557 | 1400 nM | 0.366 | 293 nM | 0.99 | > 20000 nM | 0.913 | > 4000 nM
P31-FUJ (acute myeloid leukaemia, suspension) | 0.265 | 8.35 nM | 0.989 | > 20000 nM | 0.996 | > 2560 nM | 0.996 | > 10000 nM | 0.626 | 1270 nM | 0.995 | > 1020 nM | 0.996 | > 2000 nM | 0.993 | > 5000 nM | 0.995 | > 2500 nM | 0.149 | 38.8 nM | 0.996 | > 10000 nM | 0.915 | 13600 nM | 0.93 | 10100 nM | 0.995 | > 20000 nM | 0.984 | > 4000 nM
P32-ISH (Burkitt lymphoma, suspension) | 0.277 | 9.04 nM | 0.866 | 10900 nM | 0.982 | > 2560 nM | 0.86 | 5220 nM | 0.718 | 2150 nM | 0.961 | > 1020 nM | 0.397 | 70.2 nM | 0.995 | > 5000 nM | 0.969 | > 2500 nM | 0.895 | 3430 nM | 0.94 | > 10000 nM | 0.669 | 2590 nM | 0.519 | 712 nM | 0.995 | > 20000 nM | 0.789 | 1310 nM
PF-382 (T-cell lymphoblastic leukaemia, suspension) | 0.48 | 28.5 nM | 0.85 | 12300 nM | 0.99 | > 2560 nM | 0.99 | > 10000 nM | 0.905 | > 10000 nM | 0.991 | > 1020 nM | 0.662 | 330 nM | 0.981 | > 5000 nM | 0.9 | > 2500 nM | 0.99 | > 5000 nM | 0.979 | > 10000 nM | 0.604 | 1850 nM | 0.552 | 872 nM | 0.983 | > 20000 nM | 0.742 | 1100 nM
QIMR-WIL (acute myeloid leukaemia, suspension) | 0.71 | 123 nM | 0.869 | 17400 nM | 0.982 | > 2560 nM | 0.977 | > 10000 nM | 0.752 | 3220 nM | 0.984 | > 1020 nM | 0.925 | > 2000 nM | 0.982 | > 5000 nM | 0.678 | 482 nM | 0.872 | 4500 nM | 0.903 | > 10000 nM | 0.589 | 1740 nM | 0.433 | 422 nM | 0.985 | > 20000 nM | 0.912 | > 4000 nM
REH (B-cell leukaemia, suspension) | 0.312 | 9.76 nM | 0.766 | 7080 nM | 0.896 | > 2560 nM | 0.849 | 7040 nM | 0.622 | 1340 nM | 0.969 | > 1020 nM | 0.443 | 88 nM | 0.987 | > 5000 nM | 0.936 | > 2500 nM | 0.846 | 3420 nM | 0.969 | > 10000 nM | 0.634 | 2310 nM | 0.336 | 228 nM | 0.974 | > 20000 nM | 0.91 | > 4000 nM
RF-48 (stomach, adherent) | 0.695 | 121 nM | 0.863 | > 20000 nM | 0.985 | > 2560 nM | 0.984 | > 10000 nM | 0.923 | > 10000 nM | 0.985 | > 1020 nM | 0.964 | > 2000 nM | 0.985 | > 5000 nM | 0.939 | > 2500 nM | 0.9 | > 5000 nM | 0.982 | > 10000 nM | 0.722 | 4640 nM | 0.451 | 464 nM | 0.971 | > 20000 nM | 0.768 | 1680 nM
RKO (large intestine, adherent) | 0.219 | 5.2 nM | 0.838 | 12200 nM | 0.98 | > 2560 nM | – | – | 0.417 | 378 nM | 0.988 | > 1020 nM | 0.817 | 1010 nM | 0.984 | > 5000 nM | 0.917 | > 2500 nM | 0.984 | > 5000 nM | 0.974 | > 10000 nM | 0.797 | 6940 nM | 0.647 | 1580 nM | 0.988 | > 20000 nM | 0.894 | > 4000 nM

The IC50 comes from the fitted curve, where viability falls to half of the control; where the fit passes the top or lowest dose, that dose stands as a limit. For AUC the same curve is integrated over the 256-fold range of doses and scaled to a fraction; values near 1 show little effect. For some of these results: An inferred top dose was derived from the fitted curves, not read from the paper. For some of these results: Drugs with an entry number were screened twice under separate entries, and the two screens often disagree.
